Data reported in the supplement of paper PMC4604168 (melanoma cell lines).
Some of the results follow. Single values are uncertain, as repeats are few or missing.

The compounds below were run on WM3619 (assay: cell count relative to DMSO control; melanoma cells; higher = more viable cells). Details: library dose: low library concentration; 72 h.
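Note: cell number obtained by counting DAPI-stained nuclei in high-throughput microscope images with image analysis software, screen run in 1,536-well plates.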

Row | Compound | cell count [%]
1 | CN(C)S(=O)(=O)c1ccc2c(c1)/C(=C/c1cc3c([nH]1)CCCC3)C(=O)N2 + O=C(O)c1ccc(-c2c[nH]c3ncc(-c4ccccc4)cc23)cc1C1CCCC1 [GSK650394] (first compound 0.4 µM, partner dose 0.16 µM) | 117
2 | CO[C@@H]1[C@H](N(C)C(=O)c2ccccc2)C[C@H]2O[C@]1(C)n1c3ccccc3c3c4c(c5c6ccccc6n2c5c31)C(=O)NC4 [Midostaurin] + O=C(Nc1cccc(Cl)c1)Nc1ncc(CCNc2ncnc3ccsc23)s1 [SNS314] (first compound 0.08 µM, partner dose 0.0008 µM) | 77.8
3 | C=CCn1c(=O)c2cnc(Nc3ccc(N4CCN(C)CC4)cc3)nc2n1-c1cccc(C(C)(C)O)n1 + OCCn1cc(-c2cnc3nnn(Cc4ccc5ncccc5c4)c3n2)cn1 [PF04217903] (first compound 0.02 µM, partner dose 1 µM) | 92.5
4 | C[C@]1(c2nc3c(C(N)=O)cccc3[nH]2)CCCN1 [Veliparib] + COc1ccc2c(c1)CCC1C2CCC2(C)C(NCCCCCCN3C(=O)C=CC3=O)CCC12 [U73122] (first compound 1.4 µM, partner dose 0.4 µM) | 93
5 | CO[C@@H]1[C@H](N(C)C(=O)c2ccccc2)C[C@H]2O[C@]1(C)n1c3ccccc3c3c4c(c5c6ccccc6n2c5c31)C(=O)NC4 [Midostaurin] + Cc1cc([N+](=O)[O-])ccc1NS(=O)(=O)c1cc(Cl)ccc1Cl [FH535] (first compound 0.08 µM, partner dose 1 µM) | 148
6 | NC(=O)Nc1cc(-c2cccc(F)c2)sc1C(=O)N[C@H]1CCCNC1 + CCCCCCCCCCCC1=C(O)C(=O)C=C(O)C1=O [Embelin] (first compound 0.02 µM, partner dose 1.2 µM) | 119
7 | CO[C@@H]1[C@H](N(C)C(=O)c2ccccc2)C[C@H]2O[C@]1(C)n1c3ccccc3c3c4c(c5c6ccccc6n2c5c31)C(=O)NC4 [Midostaurin] + CCN(CC)CCCCNc1ncc2cc(-c3cc(OC)cc(OC)c3)c(NC(=O)NC(C)(C)C)nc2n1 [PD173074] (first compound 0.08 µM, partner dose 0.1 µM) | 126
8 | CO[C@@H]1[C@H](N(C)C(=O)c2ccccc2)C[C@H]2O[C@]1(C)n1c3ccccc3c3c4c(c5c6ccccc6n2c5c31)C(=O)NC4 [Midostaurin] + Cn1cncc1[C@@](N)(c1ccc(Cl)cc1)c1ccc2c(c1)c(-c1cccc(Cl)c1)cc(=O)n2C [tipifarnib] (first compound 0.08 µM, partner dose 0.01 µM) | 100
9 | CO[C@@H]1[C@H](N(C)C(=O)c2ccccc2)C[C@H]2O[C@]1(C)n1c3ccccc3c3c4c(c5c6ccccc6n2c5c31)C(=O)NC4 [Midostaurin] + CN(NC(=O)CC(=O)NN(C)C(=S)c1ccccc1)C(=S)c1ccccc1 [STA4783] (first compound 0.08 µM, partner dose 0.006 µM) | 86.7
10 | Cc1nc(Nc2ncc(C(=O)Nc3c(C)cccc3Cl)s2)cc(N2CCN(CCO)CC2)n1 [dasatanib] + CC(C)CCN1c2nc(Nc3cc(F)c(O)c(F)c3)ncc2N(C)C(=O)C1C [BID1870] (first compound 0.004 µM, partner dose 0.2 µM) | 91.4
11 | NC(=O)Nc1cc(-c2cccc(F)c2)sc1C(=O)N[C@H]1CCCNC1 + COC(=O)c1sccc1S(=O)(=O)Nc1ccc(Nc2ccccc2)cc1OC [GSK0660] (first compound 0.02 µM, partner dose 1 µM) | 72.6
12 | Cc1nc(Nc2ncc(C(=O)Nc3c(C)cccc3Cl)s2)cc(N2CCN(CCO)CC2)n1 [dasatanib] + NCC(=O)Nc1ccc(-n2nc(C(F)(F)F)cc2-c2ccc3c(ccc4ccccc43)c2)cc1 [OSU03012] (first compound 0.004 µM, partner dose 1 µM) | 83.9
13 | NC(=O)Nc1cc(-c2cccc(F)c2)sc1C(=O)N[C@H]1CCCNC1 + O=C(O)C(=O)Nc1sc2c(c1C(=O)O)CCNC2 [TCS401] (first compound 0.02 µM, partner dose 1.66667 µM) | 46.9
14 | OCCn1cc(-c2cnc3nnn(Cc4ccc5ncccc5c4)c3n2)cn1 + COc1ccc(COc2ccc(Cc3cnc(N)nc3N)cc2OC)cc1 [GW2580] (first compound 1 µM, partner dose 1 µM) | 74.2
15 | Cc1nc(Nc2ncc(C(=O)Nc3c(C)cccc3Cl)s2)cc(N2CCN(CCO)CC2)n1 [dasatanib] + O=C(Nc1ccccc1)c1cc([N+](=O)[O-])ccc1Cl [GW9662] (first compound 0.004 µM, partner dose 2 µM) | 104
16 | NC(=O)Nc1cc(-c2cccc(F)c2)sc1C(=O)N[C@H]1CCCNC1 + COc1cc2ncnc(Nc3ccc(Oc4ccccc4)cc3)c2cc1OC [SrcI1] (first compound 0.02 µM, partner dose 2 µM) | 50.2

Row | Compound | cell count [%]
17 | NC(=O)Nc1cc(-c2cccc(F)c2)sc1C(=O)N[C@H]1CCCNC1 + COc1cc2c(Oc3ccc4[nH]c(C)cc4c3F)ncnc2cc1OCCCN1CCCC1 [cediranib] (first compound 0.02 µM, partner dose 0.4 µM) | 81.4
18 | C=CCn1c(=O)c2cnc(Nc3ccc(N4CCN(C)CC4)cc3)nc2n1-c1cccc(C(C)(C)O)n1 + N#Cc1c(O)c2c(-c3ccc(-c4ccccc4O)cc3)csc2[nH]c1=O [A769662] (first compound 0.02 µM, partner dose 2 µM) | 71.1
19 | NC(=O)Nc1cc(-c2cccc(F)c2)sc1C(=O)N[C@H]1CCCNC1 + c1cc(-c2cnn3cc(-c4ccc(OCCN5CCCCC5)cc4)cnc23)ccn1 [Dorsomorphin] (first compound 0.02 µM, partner dose 0.4 µM) | 57.1
20 | Cc1nc(Nc2ncc(C(=O)Nc3c(C)cccc3Cl)s2)cc(N2CCN(CCO)CC2)n1 [dasatanib] + O=C(CCCCCCC(=O)Nc1ccccc1)NO [vorinostat] (first compound 0.004 µM, partner dose 0.08 µM) | 84.7
21 | Cc1nc(Nc2ncc(C(=O)Nc3c(C)cccc3Cl)s2)cc(N2CCN(CCO)CC2)n1 [dasatanib] + Nc1cccc2c1CN(C1CCC(=O)NC1=O)C2=O [lenalidomide] (first compound 0.004 µM, partner dose 1 µM) | 89.5
22 | C=CCn1c(=O)c2cnc(Nc3ccc(N4CCN(C)CC4)cc3)nc2n1-c1cccc(C(C)(C)O)n1 + C[C@@H]1CCN(C(=O)CC#N)C[C@@H]1N(C)c1ncnc2[nH]ccc12 [CP690550] (first compound 0.02 µM, partner dose 1 µM) | 94.2
23 | CO[C@@H]1[C@H](N(C)C(=O)c2ccccc2)C[C@H]2O[C@]1(C)n1c3ccccc3c3c4c(c5c6ccccc6n2c5c31)C(=O)NC4 [Midostaurin] + O=C(Nc1ccccc1)c1cc([N+](=O)[O-])ccc1Cl [GW9662] (first compound 0.08 µM, partner dose 2 µM) | 95.9
24 | NC(=O)Nc1cc(-c2cccc(F)c2)sc1C(=O)N[C@H]1CCCNC1 + COc1ccc(-c2ccc3c(N4CCOCC4)nc(N4C[C@@H](C)O[C@@H](C)C4)nc3n2)cc1CO [KU0063794] (first compound 0.02 µM, partner dose 0.02 µM) | 45.1
25 | CO[C@@H]1[C@H](N(C)C(=O)c2ccccc2)C[C@H]2O[C@]1(C)n1c3ccccc3c3c4c(c5c6ccccc6n2c5c31)C(=O)NC4 [Midostaurin] + Oc1nc(-c2ccc(C(F)(F)F)cc2)nc2c1CSCC2 [XAV939] (first compound 0.08 µM, partner dose 2 µM) | 89.8
26 | C[C@]1(c2nc3c(C(N)=O)cccc3[nH]2)CCCN1 [Veliparib] + Cc1cc(N2CCOCC2)cc2[nH]c(-c3c(NC[C@@H](O)c4cccc(Cl)c4)cc[nH]c3=O)nc12 [BMS536924] (first compound 1.4 µM, partner dose 0.2 µM) | 72.8
27 | CN(C)S(=O)(=O)c1ccc2c(c1)/C(=C/c1cc3c([nH]1)CCCC3)C(=O)N2 + CCCCCCCCCCCC1=C(O)C(=O)C=C(O)C1=O [Embelin] (first compound 0.4 µM, partner dose 1.2 µM) | 111
28 | C[C@]1(c2nc3c(C(N)=O)cccc3[nH]2)CCCN1 [Veliparib] + c1cc(-c2cnn3cc(-c4ccc(OCCN5CCCCC5)cc4)cnc23)ccn1 [Dorsomorphin] (first compound 1.4 µM, partner dose 0.4 µM) | 106
29 | NC(=O)Nc1cc(-c2cccc(F)c2)sc1C(=O)N[C@H]1CCCNC1 + Cn1cc(/C=C2\C(=O)Nc3cccnc32)c2ccccc21 [GW441756] (first compound 0.02 µM, partner dose 0.4 µM) | 39.8
30 | CN(C)S(=O)(=O)c1ccc2c(c1)/C(=C/c1cc3c([nH]1)CCCC3)C(=O)N2 + Cc1cc([N+](=O)[O-])ccc1NS(=O)(=O)c1cc(Cl)ccc1Cl [FH535] (first compound 0.4 µM, partner dose 1 µM) | 122
31 | NC(=O)Nc1cc(-c2cccc(F)c2)sc1C(=O)N[C@H]1CCCNC1 + O=C(Nc1ccccc1)c1cc([N+](=O)[O-])ccc1Cl [GW9662] (first compound 0.02 µM, partner dose 2 µM) | 80.3
